# In the supplement of paper PMC12889115:
# This is one part of the list. Rule as the data show it: active = 25% or less and inactive = the rest. Many values rest on one well or one pass, so single values are uncertain.
# Tested on: Salmonella enterica serovar Typhimurium SL1344
# Experiment: intramacrophage bacterial GFP load (SAFIRE), percent of DMSO control (% of DMSO); higher = more intracellular bacteria (less inhibition)
# Details: 25 µM; system: infected RAW 264.7 macrophages
# Method: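 Secondary screen of the 553 primary hits at 25 µM. (i) S. Typhimurium SL1344 grown in Mueller-Hinton broth with 0.5 µg/mL polymyxin B, OD600 read after 18 h. (ii) SAFIRE assay: RAW 264.7 macrophages infected with S. Typhimurium sifB::gfp (MOI 30); compound added 2 h post-infection; cells fixed at 18 h; GFP-positive pixel fraction per macrophage imaged by confocal microscopy and expressed as % of DMSO control.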
# 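Also: compounds tested were the hits of an earlier 50 µM broth growth screen of a drug-like diversity library run with polymyxin B.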
row,SMILES,intramacrophage bacterial GFP load
1,CC(C)c1cc(CN2CCC(n3nccc3NC(=O)c3ccc4c(c3)OCO4)CC2)n[nH]1,inactive: 159
2,CCCCn1c(CN2CCCCC2c2ccc(F)cc2)cnc1S(=O)(=O)CC (centres undefined),inactive: 34.8
3,Cc1ccc(OCC(=O)N2CCC(C(Cc3ccccc3)N(C)C(=O)c3ccoc3C)CC2)cc1 (centres undefined),inactive: 88.8
4,CSc1ccccc1C(=O)N1CCC(C(Cc2ccccc2F)N(C)C(=O)c2cccs2)CC1 (centres undefined),inactive: 39.4
5,O=C(c1coc(COc2ccc3c(c2)OCO3)n1)N1CCCC(c2ccccc2)C1 (centres undefined),inactive: 111
6,COc1cc(CN2CCOc3ccc(C(C)(O)COc4ccccc4)cc3C2)ccc1F (centres undefined),inactive: 34.6
7,COCCNC(=O)c1ccc(OC2CCN(Cc3ccccc3OC)CC2)c(Cl)c1,inactive: 164
8,O=C(c1cc2cc(F)ccc2[nH]1)N1CCCC(CO)(Cc2cccc(Cl)c2)C1 (centres undefined),inactive: 102
9,CC(C)CS(=O)(=O)c1ncc(CN(C)Cc2ccccc2)n1Cc1ccccc1,inactive: 73.8
10,O=C(Nc1ccc(-c2cccc(F)c2)cc1)C1CCCN(C(=O)Cc2ccccn2)C1 (centres undefined),inactive: 55.7
11,CC(C)c1ccc(NC2CCCN(C(=O)c3ccc4c(c3)OCO4)C2)cc1 (centres undefined),active: 7.59
12,CCc1ccc(CN(C)C(=O)c2cn(CC3COc4ccccc4O3)nn2)cc1 (centres undefined),active: 19.6
13,COc1ccc(-c2nc(CN(Cc3ccccc3)C[C@@H]3CCC(=O)N3)c(C)o2)cc1C,inactive: 47.4
14,C=C(C)CN(CC)C(=O)c1cc(COc2cc(C)c(Cl)c(C)c2)on1,inactive: 107
